Laboratory results from PubChem BioAssay AID485360 (National Center for Advancing Translational Sciences (NCATS), 2010).
The whole screen tested about 230,000 compounds, of which about 1,500 (0.65%) were called active. The shares of active, inactive and inconclusive entries below differ from those in the screen. Calls follow the shape of the dose curve; as a rule, active = well fitted inhibition curve with a large enough effect; inconclusive = small, poorly fitted or top-dose-only effect; inactive = no such curve, though single readings can be large or run the other way. Where the call is inconclusive, the potency comes from a doubtful curve fit.

molecular target: Lethal(3)malignant brain tumor-like protein 1 (Homo sapiens) (UniProt Q9Y468); experiment: qHTS Assay for the Inhibitors of L3MBTL1; conditions: AlphaScreen L3MBTL1–H3K9me1 peptide binding; activity, negative = inhibition: at 57.1 µM (top of the series); also: nearly all actives have a fitted effect of over 60% in size
Method in brief: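 AlphaScreen proximity signal between nickel-chelate acceptor and streptavidin donor beads (final 10 ug/mL) reports binding of 50 nM L3MBTL1 to 75 nM biotin-H3 K9me1 peptide; complex incubated with compounds 30 min at room temperature; cefsulodin titration as control.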
% is scaled to controls: 0 for no effect and ±100 for the full control effect; potency is read from the fitted curve at half-maximal effect; tags tell the direction and shape of the fitted curve.

Chain of UniProt Q9Y468 (Q9Y468 whole entry, looked up): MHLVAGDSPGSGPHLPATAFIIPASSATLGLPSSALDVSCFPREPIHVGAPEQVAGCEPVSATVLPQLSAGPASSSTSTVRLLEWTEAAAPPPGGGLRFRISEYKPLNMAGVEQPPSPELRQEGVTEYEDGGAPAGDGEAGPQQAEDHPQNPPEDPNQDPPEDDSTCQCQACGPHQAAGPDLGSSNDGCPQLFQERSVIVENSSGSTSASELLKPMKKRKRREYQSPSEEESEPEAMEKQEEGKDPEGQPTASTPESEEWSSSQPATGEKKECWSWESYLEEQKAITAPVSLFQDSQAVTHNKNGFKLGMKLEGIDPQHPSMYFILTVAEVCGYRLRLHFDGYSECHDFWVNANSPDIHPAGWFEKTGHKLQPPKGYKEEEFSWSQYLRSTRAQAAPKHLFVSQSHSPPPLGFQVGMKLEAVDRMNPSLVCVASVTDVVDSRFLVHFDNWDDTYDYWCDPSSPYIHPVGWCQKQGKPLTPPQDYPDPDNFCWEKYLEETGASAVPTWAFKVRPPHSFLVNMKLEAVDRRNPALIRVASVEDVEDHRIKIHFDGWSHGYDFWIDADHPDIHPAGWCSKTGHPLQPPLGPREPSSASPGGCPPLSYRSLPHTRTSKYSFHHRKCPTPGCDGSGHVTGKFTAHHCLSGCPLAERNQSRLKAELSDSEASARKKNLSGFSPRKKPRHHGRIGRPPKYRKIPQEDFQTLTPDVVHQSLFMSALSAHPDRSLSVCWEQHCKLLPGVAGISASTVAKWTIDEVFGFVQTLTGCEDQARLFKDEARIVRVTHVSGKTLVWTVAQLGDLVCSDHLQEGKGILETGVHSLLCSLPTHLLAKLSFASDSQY

| SMILES | Potency | activity, negative = inhibition |
| --- | --- | --- |
| CCOc1ccccc1C1C2CCCCC2(O)CCN1C(=O)c1cccs1 (stereo not drawn) | inconclusive: 31.6 µM [inhibitor, partial curve] |  |
| Clc1ccc(-c2cnnc(-c3ccccn3)n2)cc1 | active: 3.16 µM |  |
| Oc1cccc2ccc(/C=C/c3ccc(Br)s3)nc12 | inconclusive: 3.16 µM [inhibitor, partial curve] |  |
| CC1=CC(C)(C)N2C(=O)C3(N=C(N)NC(Nc4ccccc4)=N3)c3cc(C)cc1c32 (stereo not drawn) | inconclusive: 7.08 µM [inhibitor, single point] |  |
| O=c1[nH]c(=O)n(Cc2ccccc2)c2nc(-c3ccco3)cc(C(F)(F)F)c12 |  | inactive: -1.78% |
| O=C(NCc1ccco1)C(=S)N1CCCCC1 |  | inactive: 6.84% |
| O=C(CSc1nnc(-c2ccco2)c(-c2ccco2)n1)Nc1ccccc1 | active: 3.98 µM |  |
| O=C(CN1CCCc2ccccc21)Nc1ccccc1[N+](=O)[O-] | inconclusive: 3.98 µM [inhibitor, full curve] |  |
| CC(C)N(C1=CC(=O)OC12CCCCC2)C(C)C |  | inactive: 9.85% |
| O=C(CS(=O)(=O)c1cn(Cc2ccccc2Cl)c2ccccc12)N1CCOCC1 | inconclusive: 3.98 µM [inhibitor, full curve, poor fit] |  |
| O=C(N/N=C/c1ccc[nH]1)c1ccc2c(c1)OCO2 | inconclusive: 7.94 µM [inhibitor, partial curve] |  |
| COc1ccc(C)cc1-n1nnnc1SCC(=O)c1cc(C)n(Cc2ccco2)c1C | inconclusive: 20 µM [inhibitor, single point] |  |
| Cc1ccccc1CN1CCNC(=O)C1CC(=O)O (stereo not drawn) |  | inactive: 5.75% |
| COc1ccc(-c2csc(N(CCCN(C)C)C(=O)c3ccccc3C)n2)cc1 | active: 35.5 µM |  |
| COc1cc2c(cc1OC)CN(C(=O)c1cccc([N+](=O)[O-])c1)CC2 |  | inactive: 1.93% |
| CC(=O)N1c2ccc(Cl)cc2C2C=CCC2C1c1cccc2ccccc12 (stereo not drawn) | inconclusive: 39.8 µM [inhibitor, single point] |  |
| Cc1cccc(CSc2ccc3nnc(-c4ccccn4)n3n2)c1 | inconclusive: 0.1 µM [inhibitor, full curve, poor fit] |  |
| COc1cccc(-c2nc3ccccc3s2)c1O |  | inactive: -0.666% |
| COc1cc(N/N=C(\C)c2ccc(O)c(C)c2)nc(-c2ccccc2)n1 |  | inactive: -15.1% |
| O=C1/C(=C/c2ccco2)CCc2ccccc21 | inconclusive: 17.8 µM [inhibitor, partial curve] |  |
| CCOc1ccc(C(=O)NC(=S)Nc2cccnc2)cc1 |  | inactive: -0.361% |
| Cc1ccc(/C=C2/SC(=S)N(CCC(=O)N3CCN(c4ccccc4)CC3)C2=O)cc1 | inconclusive: 8.91 µM [inhibitor, single point] |  |
| COc1cccc(/C=N/NC(=O)C(=O)NCc2cccnc2)c1O | inconclusive: 25.1 µM [inhibitor, single point] |  |
| COc1ccccc1NC(=S)c1ccccc1 |  | inactive: -13.7% |

| SMILES | Potency | activity, negative = inhibition |
| --- | --- | --- |
| O=c1c(-c2ccco2)[n+]([O-])c2ccccc2n1OCc1ccccc1[N+](=O)[O-] |  | inactive: 2.97% |
| COc1ccc(-c2cc(-c3ccc(Cl)cc3)c(C#N)c(SCC(=O)O)n2)cc1 | inconclusive: 39.8 µM [inhibitor, single point] |  |
| CCOc1ccc(Cc2noc3c2C(=O)CC(C)(C)C3)cc1OCC | inconclusive: 39.8 µM [inhibitor, single point] |  |
| CN(C)C(=O)CN(C)S(=O)(=O)c1ccc(Cl)cc1 | inconclusive: 0.708 µM [inhibitor, single point] |  |
| Cc1ccccc1N=C1NC(=O)/C(=C/c2cccn2-c2cccc(C(=O)O)c2)S1 | active: 39.8 µM |  |
| CC(C)C[C@H]1CN=C(Nc2ccccc2)N1CC1CCCC1 | inconclusive: 6.31 µM [inhibitor, single point] |  |
| CC(C)C[C@H](NC(=O)c1nc[nH]c1C(=O)NC1CCNCC1)C(=O)OC(C)(C)C |  | inactive: -3.61% |
| Cc1cc2nnc(SC(C)C#N)n2c2ccccc12 (stereo not drawn) |  | inactive: -11.8% |
| COc1cc(CNCCc2c[nH]c3ccccc23)cc(Cl)c1OCC(N)=O | inconclusive: 0.794 µM [inhibitor, full curve, poor fit] |  |
| COc1ccc(Cl)cc1C(=O)NCCc1ccc(S(=O)(=O)NC(=O)NC2CCCCC2)cc1 |  | inactive: -0.41% |
| Cc1[nH]c2ccccc2c1/C=N/Nc1ccccc1[N+](=O)[O-] | active: 17.8 µM |  |
| O=C(COC(=O)c1ccc([N+](=O)[O-])s1)NCc1ccccc1 | inconclusive: 28.2 µM [inhibitor, single point] |  |
| Cc1c(C(=O)OCC(=O)Nc2ccc(N3CCOCC3)cc2)oc2ccccc12 |  | inactive: -9.82% |
| Cc1ccnc(NC(c2cccnc2)c2ccc3cccnc3c2O)c1 (stereo not drawn) | active: 12.6 µM |  |
| Cc1cc(/C=C(/C#N)c2nc3ccccc3[nH]2)c(C)n1-c1cc(C(=O)O)cc(C(=O)O)c1 | active: 3.55 µM |  |
| Nc1ccc(N=Nc2ccc(N)cc2)cc1 | inconclusive: 28.2 µM [inhibitor, single point] |  |
| COc1ccc(Nc2ccc(S(=O)(=O)N3CCCCC3)cc2[N+](=O)[O-])cc1OC | inconclusive: 25.1 µM [inhibitor, partial curve] |  |
| COc1ccc(C(=O)N2CCN(c3ccc([N+](=O)[O-])c(-n4nc(C)cc4C)c3)CC2)cc1 | inconclusive: 39.8 µM [inhibitor, single point] |  |
| Cn1cnc(S(=O)(=O)Nc2ccc(C(F)(F)F)cc2)c1 | inconclusive: 7.08 µM [inhibitor, single point] |  |
| CCOC(=O)c1cnc(-n2nc(C)cc2C)nc1Nc1ccc(N(C)C)cc1 | active: 3.16 µM |  |
| CCN(C[C@H]1N[C@@](Cc2ccccc2)(C(=O)OC)[C@H]2C(=O)N(Cc3ccccc3)C(=O)[C@@H]12)S(=O)(=O)c1ccc(C)cc1 | inconclusive: 0.708 µM [inhibitor, single point] |  |
| O=C1C=CC(=O)N1c1cccc(-c2ccccc2)c1 |  | inactive: -16.4% |
| C=CCN1C(=O)/C(=C2/Sc3ccccc3N2CCCS(=O)(=O)O)SC1=S | inconclusive: 28.2 µM [inhibitor, single point] |  |
| O=c1[nH]c2ccccc2c2oc(CCl)nc12 |  | inactive: -2.98% |
